Measurements: the supplement of paper PMC4967469
The IC50 comes from the fitted curve, where viability falls to half of the control; a fit beyond the top or the lowest dose is shown as a bound at that dose. The AUC spans the tested range (256-fold, ending at the top dose) of the same fit; the more sensitive the line, the further below 1. A top dose marked as inferred is not printed in the source and was worked back from the curve model.

Compound: O=C1NC(=NCc2cccs2)S/C1=C\c1ccc2ncccc2c1 [RO-3306]
Test: Viability of human cancer cell lines after 72 h of drug (GDSC screen)
Conditions: top dose 5 µM; top dose inferred
Procedure: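 Human cancer cell lines in 384-well plates, medium with 10% serum, drug for 72 h over a 256-fold dose range (nine 2-fold or five 4-fold steps up to the top dose). Adherent lines were fixed and stained with the nucleic acid dye Syto60, suspension lines read with resazurin; signal relative to control wells, capped at 0 and 100%. One two-parameter sigmoid per drug and line, fitted in a mixed model over all curves with the slope shared within a line.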

Cell Line | AUC | IC50 [µM]
HCC1395 (breast, adherent) | 0.901 | > 5
HCC1419 (breast, adherent) | 0.922 | > 5
HCC1428 (breast, adherent) | 0.934 | > 5
HCC1500 (breast, adherent) | 0.988 | > 5
HCC1569 (breast, adherent) | 0.97 | > 5
HCC1806 (breast, adherent) | 0.972 | > 5
HCC1937 (breast, adherent) | 0.965 | > 5
HCC1954 (breast, adherent) | 0.954 | > 5
HCC2157 (breast, suspension) | 0.977 | > 5
HCC2218 (breast, suspension) | 0.982 | > 5
HCC-15 (lung squamous cell carcinoma, adherent) | 0.857 | > 5
HCC-44 (lung adenocarcinoma, adherent) | 0.973 | > 5
HCC-56 (large intestine, adherent) | 0.983 | > 5
HCC-78 (lung adenocarcinoma, adherent) | 0.966 | > 5
HCC-366 (non-small cell lung carcinoma, adherent) | 0.975 | > 5
HCC-827 (lung adenocarcinoma, adherent) | 0.952 | > 5
HCT-15 (large intestine, adherent) | 0.948 | > 5
HD-MY-Z (Hodgkin lymphoma, adherent) | 0.908 | > 5
HDLM-2 (Hodgkin lymphoma, suspension) | 0.964 | > 5
HDQ-P1 (breast, adherent) | 0.984 | > 5
HEC-1 (endometrium, adherent) | 0.979 | > 5
HGC-27 (stomach, adherent) | 0.913 | > 5
HH (T-cell leukaemia, suspension) | 0.902 | > 5
HL-60 (acute myeloid leukaemia, suspension) | 0.968 | > 5
HLE (liver, adherent) | 0.952 | > 5
HN (head and neck, adherent) | 0.886 | 4.95

Cell Line | AUC | IC50 [µM]
HO-1-u-1 (head and neck, adherent) | 0.988 | > 5
HOP-62 (lung adenocarcinoma, adherent) | 0.98 | > 5
HOS (osteosarcoma, adherent) | 0.959 | > 5
HSC-2 (head and neck, adherent) | 0.932 | > 5
HSC-39 (stomach, suspension) | 0.991 | > 5
HT55 (large intestine, adherent) | 0.99 | > 5
HT (B-cell lymphoma, suspension) | 0.989 | > 5
HT-3 (cervix, adherent) | 0.941 | > 5
HT-29 (large intestine, adherent) | 0.977 | > 5
HT-115 (large intestine, adherent) | 0.991 | > 5
HT-144 (melanoma, adherent) | 0.977 | > 5
HT-1080 (fibrosarcoma, adherent) | 0.935 | > 5
HT-1197 (bladder, adherent) | 0.983 | > 5
HT-1376 (bladder, adherent) | 0.954 | > 5
HUTU-80 (digestive system, adherent) | 0.982 | > 5
HeLa (cervix, adherent) | 0.977 | > 5
Hep 3B2_1-7 (liver, adherent) | 0.921 | > 5
Hey (ovary, adherent) | 0.91 | > 5
Hs633T (fibrosarcoma, adherent) | 0.971 | > 5
Hs683 (glioma, adherent) | 0.812 | 2.72
Hs746T (stomach, adherent) | 0.967 | > 5
Hs766T (pancreas, adherent) | 0.942 | > 5
Hs939-T (melanoma, adherent) | 0.945 | > 5
Hs-578-T (breast, adherent) | 0.798 | 2.56
HuCCT1 (biliary tract, adherent) | 0.983 | > 5
HuH-7 (liver, adherent) | 0.958 | > 5

Cell Line | AUC | IC50 [µM]
HuO9 (osteosarcoma, adherent) | 0.976 | > 5
HuO-3N1 (osteosarcoma, adherent) | 0.982 | > 5
HuP-T3 (pancreas, adherent) | 0.948 | > 5
HuP-T4 (pancreas, adherent) | 0.978 | > 5
IA-LM (large cell lung carcinoma, adherent) | 0.943 | > 5
IGR-1 (melanoma, adherent) | 0.99 | > 5
IGR-37 (melanoma, adherent) | 0.979 | > 5
IGROV-1 (ovary, adherent) | 0.976 | > 5
IHH-4 (thyroid, semi-adherent) | 0.873 | 3.24
IM-9 (myeloma, suspension) | 0.989 | > 5
IMR-5 (neuroblastoma, adherent) | 0.982 | > 5
IPC-298 (melanoma, adherent) | 0.988 | > 5
IST-MEL1 (melanoma, adherent) | 0.976 | > 5
IST-SL1 (small cell lung carcinoma, semi-adherent) | 0.897 | > 5
IST-SL2 (small cell lung carcinoma, suspension) | 0.989 | > 5
JAR (urogenital system, adherent) | 0.976 | > 5
JEG-3 (urogenital system, adherent) | 0.978 | > 5
JEKO-1 (B-cell lymphoma, suspension) | 0.97 | > 5
JHH-1 (liver, adherent) | 0.934 | > 5
JHH-2 (liver, adherent) | 0.977 | > 5
JHH-4 (liver, adherent) | 0.987 | > 5
JHH-7 (liver, adherent) | 0.98 | > 5
JHOS-2 (ovary, adherent) | 0.948 | > 5
JHOS-3 (ovary, adherent) | 0.982 | > 5
JHOS-4 (ovary, adherent) | 0.947 | > 5
JHU-011 (head and neck, adherent) | 0.858 | 3.99

Cell Line | AUC | IC50 [µM]
JHU-022 (head and neck, adherent) | 0.787 | 2.82
JHU-029 (head and neck, adherent) | 0.94 | > 5
JIMT-1 (breast, adherent) | 0.874 | > 5
JJN-3 (haematopoietic neoplasm, suspension) | 0.987 | > 5
JM1 (B-cell lymphoma, suspension) | 0.991 | > 5
JSC-1 (B-cell lymphoma, suspension) | 0.986 | > 5
JURL-MK1 (chronic myeloid leukaemia, suspension) | 0.985 | > 5
JVM-2 (lymphoid neoplasm, suspension) | 0.979 | > 5
JVM-3 (lymphoid neoplasm, suspension) | 0.941 | > 5
JiyoyeP-2003 (Burkitt lymphoma, suspension) | 0.985 | > 5
Jurkat (T-cell leukaemia, suspension) | 0.992 | > 5
K2 (melanoma, adherent) | 0.978 | > 5
K5 (thyroid, adherent) | 0.956 | > 5
KARPAS-45 (lymphoblastic leukaemia, suspension) | 0.986 | > 5
KARPAS-231 (B-cell leukaemia, suspension) | 0.951 | > 5
KARPAS-299 (anaplastic large cell lymphoma, suspension) | 0.948 | > 5
KARPAS-422 (B-cell lymphoma, suspension) | 0.974 | > 5
KARPAS-620 (haematopoietic neoplasm, suspension) | 0.974 | > 5
KARPAS-1106P (B-cell lymphoma, suspension) | 0.988 | > 5
KATOIII (stomach, semi-adherent) | 0.99 | > 5
KCL-22 (chronic myeloid leukaemia, suspension) | 0.991 | > 5
KE-37 (lymphoblastic leukaemia, suspension) | 0.993 | > 5
KELLY (neuroblastoma, adherent) | 0.926 | > 5
KG-1 (acute myeloid leukaemia, suspension) | 0.987 | > 5
KGN (ovary, adherent) | 0.971 | > 5
